According to PubChem BioAssay AID2685 (National Center for Advancing Translational Sciences (NCATS), 2010):
Out of some 320,000 compounds screened, about 2,100 (0.66%) were called active. Not shown: some 53% with an inconclusive outcome. The call rests on the fitted dose curve; in most records, active means well fitted inhibition curve with a large enough effect in the signal ratio, with a control signal flat (not every such curve was filed as active); inconclusive means small, poorly fitted or top-dose-only effect, or effect the other way, or a change in a side signal; inactive means flat fitted curve, though single readings scatter; the % refers to the signal ratio. Some structures have more than one record in an assay (separate samples or runs), and their calls can disagree. For part of its entries the source gives two or more results. This list holds those alone. An entry can have further records. The values listed for one entry are repeats across runs, samples, wells, individuals or studies. Brackets tell where a record comes from. Letters hold for one entry only.

Assay: qHTS Assay for Lipid Storage Modulators in Drosophila S3 Cells
Conditions: BODIPY lipid droplet fluorescence, 18-24 h, cells fed with added oleic acid; series mostly up to 46.1 µM
Potency means the concentration at half of the fitted maximal effect.

Row | SMILES | Potency
1 | CN(Cc1ccco1)c1ncnc2ccc(-c3ccoc3)cc12 | active: 14.6 µM [sample A] and inactive [sample B]
2 | CC(=O)NC(c1cccs1)c1cc(F)c2cccnc2c1O (centres undefined) | active: 1.3 µM [sample A] and inactive [sample B]
3 | CC(C(=O)O)c1cccc(C(=O)c2ccccc2)c1 (centres undefined) | inactive [sample A] and active: 5.8 µM [sample B]
4 | C[C@H](NC(=O)C1(c2ccccc2)CCN(C(=O)[C@H]2CSCN2C(=O)OC(C)(C)C)CC1)C(=O)O | active: 7.31 µM [sample A] and inactive [sample B]
